This passage reports Kd results from patent US20260053898A1 (FORTVITA BIOLOGICS SINGAPORE PTE, published 2026).

To fix the notation:
B1: 2132 (αPD-1/IL-2m immunoconjugate; IL-2 with T3A + N88R and IL15 B′C′ loop region) (other)
chain: APASSSTKKTQLQLEHLLLDLQMILNGINNYKNPKLTRMLTFKFYMPKKATELKHLQCLEEELKPLEEVLNLAGDASIHDLISRINVIVLELKGSETTFMCEYADETATIVEFLNRWITFSQSIISTLTGGGGSGGGGS[human IgG1 Fc with changes not listed]
heavy: QVQLVQSGAEVKKPGSSVKVSCKASGGTFSSYAISWVRQAPGQGLEWMGLIIPMFDTAGYAQKFQGRVAITVDESTSTAYMELSSLRSEDTAVYYCARAEHSSTGTFDYWGQGTLVTVSSASTKGPSVFPLAPSSKSTSGGTAALGCLVKDYFPEPVTVSWNSGALTSGVHTFPAVLQSSGLYSLSSVVTVPSSSLGTQTYICNVNHKPSNTKVDKKVEPKSCDKTHTCPPCPAPEAAGGPSVFLFPPKPKDTLMISRTPEVTCVVVDVSHEDPEVKFNWYVDGVEVHNAKTKPREEQYNSTYRVVSVLTVLHQDWLNGKEYKCKVSNKALPAPIEKTISKAKGQPREPQVCTLPPSRDELTKNQVSLSCAVKGFYPSDIAVEWESNGQPENNYKTTPPVLDSDGSFFLVSKLTVDKSRWQQGNVFSCSVMHEALHNHYTQKSLSLSPGK
light: DIQMTQSPSSVSASVGDRVTITCRASQGISSWLAWYQQKPGKAPKLLISAASSLQSGVPSRFSGSGSGTDFTLTISSLQPEDFATYYCQQANHLPFTFGGGTKVEIKRTVAAPSVFIFPPSDEQLKSGTASVVCLLNNFYPREAKVQWKVDNALQSGNSQESVTEQDSKDSTYSLSSTLTLSKADYEKHKVYACEVTHQGLSSPVTKSFNRGEC
B2: 2214 (αPD-1/IL-2m immunoconjugate; IL-2 with T3A + F42A + N88R + S127E and IL15 B′C′ loop region) (other)
chain: APASSSTKKTQLQLEHLLLDLQMILNGINNYKNPKLTRMLTAKFYMPKKATELKHLQCLEEELKPLEEVLNLAGDASIHDLISRINVIVLELKGSETTFMCEYADETATIVEFLNRWITFSQEIISTLTGGGGSGGGGS[human IgG1 Fc with changes not listed]
heavy: QVQLVQSGAEVKKPGSSVKVSCKASGGTFSSYAISWVRQAPGQGLEWMGLIIPMFDTAGYAQKFQGRVAITVDESTSTAYMELSSLRSEDTAVYYCARAEHSSTGTFDYWGQGTLVTVSSASTKGPSVFPLAPSSKSTSGGTAALGCLVKDYFPEPVTVSWNSGALTSGVHTFPAVLQSSGLYSLSSVVTVPSSSLGTQTYICNVNHKPSNTKVDKKVEPKSCDKTHTCPPCPAPEAAGGPSVFLFPPKPKDTLMISRTPEVTCVVVDVSHEDPEVKFNWYVDGVEVHNAKTKPREEQYNSTYRVVSVLTVLHQDWLNGKEYKCKVSNKALPAPIEKTISKAKGQPREPQVCTLPPSRDELTKNQVSLSCAVKGFYPSDIAVEWESNGQPENNYKTTPPVLDSDGSFFLVSKLTVDKSRWQQGNVFSCSVMHEALHNHYTQKSLSLSPGK
light: DIQMTQSPSSVSASVGDRVTITCRASQGISSWLAWYQQKPGKAPKLLISAASSLQSGVPSRFSGSGSGTDFTLTISSLQPEDFATYYCQQANHLPFTFGGGTKVEIKRTVAAPSVFIFPPSDEQLKSGTASVVCLLNNFYPREAKVQWKVDNALQSGNSQESVTEQDSKDSTYSLSSTLTLSKADYEKHKVYACEVTHQGLSSPVTKSFNRGEC
B3: 2219 (αPD-1/IL-2m immunoconjugate; IL-2 with T3A + K35E + N88R + S127E and truncated IL-2 B′C′ loop region) (other)
chain: APASSSTKKTQLQLEHLLLDLQMILNGINNYKNPELTRMLTFKFYMPKKATELKHLQCLEEELKPLEEVLNLAQSKNFHDLISRINVIVLELKGSETTFMCEYADETATIVEFLNRWITFSQEIISTLTGGGGSGGGGS[human IgG1 Fc with changes not listed]
heavy: QVQLVQSGAEVKKPGSSVKVSCKASGGTFSSYAISWVRQAPGQGLEWMGLIIPMFDTAGYAQKFQGRVAITVDESTSTAYMELSSLRSEDTAVYYCARAEHSSTGTFDYWGQGTLVTVSSASTKGPSVFPLAPSSKSTSGGTAALGCLVKDYFPEPVTVSWNSGALTSGVHTFPAVLQSSGLYSLSSVVTVPSSSLGTQTYICNVNHKPSNTKVDKKVEPKSCDKTHTCPPCPAPEAAGGPSVFLFPPKPKDTLMISRTPEVTCVVVDVSHEDPEVKFNWYVDGVEVHNAKTKPREEQYNSTYRVVSVLTVLHQDWLNGKEYKCKVSNKALPAPIEKTISKAKGQPREPQVCTLPPSRDELTKNQVSLSCAVKGFYPSDIAVEWESNGQPENNYKTTPPVLDSDGSFFLVSKLTVDKSRWQQGNVFSCSVMHEALHNHYTQKSLSLSPGK
light: DIQMTQSPSSVSASVGDRVTITCRASQGISSWLAWYQQKPGKAPKLLISAASSLQSGVPSRFSGSGSGTDFTLTISSLQPEDFATYYCQQANHLPFTFGGGTKVEIKRTVAAPSVFIFPPSDEQLKSGTASVVCLLNNFYPREAKVQWKVDNALQSGNSQESVTEQDSKDSTYSLSSTLTLSKADYEKHKVYACEVTHQGLSSPVTKSFNRGEC
B4: 2213 (αPD-1/IL-2m immunoconjugate; IL-2 with T3A + F42A + N88R + S127E and truncated IL-2 B′C′ loop region) (other)
chain: APASSSTKKTQLQLEHLLLDLQMILNGINNYKNPKLTRMLTAKFYMPKKATELKHLQCLEEELKPLEEVLNLAQSKNFHDLISRINVIVLELKGSETTFMCEYADETATIVEFLNRWITFSQEIISTLTGGGGSGGGGS[human IgG1 Fc with changes not listed]
heavy: QVQLVQSGAEVKKPGSSVKVSCKASGGTFSSYAISWVRQAPGQGLEWMGLIIPMFDTAGYAQKFQGRVAITVDESTSTAYMELSSLRSEDTAVYYCARAEHSSTGTFDYWGQGTLVTVSSASTKGPSVFPLAPSSKSTSGGTAALGCLVKDYFPEPVTVSWNSGALTSGVHTFPAVLQSSGLYSLSSVVTVPSSSLGTQTYICNVNHKPSNTKVDKKVEPKSCDKTHTCPPCPAPEAAGGPSVFLFPPKPKDTLMISRTPEVTCVVVDVSHEDPEVKFNWYVDGVEVHNAKTKPREEQYNSTYRVVSVLTVLHQDWLNGKEYKCKVSNKALPAPIEKTISKAKGQPREPQVCTLPPSRDELTKNQVSLSCAVKGFYPSDIAVEWESNGQPENNYKTTPPVLDSDGSFFLVSKLTVDKSRWQQGNVFSCSVMHEALHNHYTQKSLSLSPGK
light: DIQMTQSPSSVSASVGDRVTITCRASQGISSWLAWYQQKPGKAPKLLISAASSLQSGVPSRFSGSGSGTDFTLTISSLQPEDFATYYCQQANHLPFTFGGGTKVEIKRTVAAPSVFIFPPSDEQLKSGTASVVCLLNNFYPREAKVQWKVDNALQSGNSQESVTEQDSKDSTYSLSSTLTLSKADYEKHKVYACEVTHQGLSSPVTKSFNRGEC
B5: 2063 (αPD-1/IL-2m immunoconjugate; IL-2 with T3A + N88D and IL15 B′C′ loop region) (other)
chain: APASSSTKKTQLQLEHLLLDLQMILNGINNYKNPKLTRMLTFKFYMPKKATELKHLQCLEEELKPLEEVLNLAGDASIHDLISDINVIVLELKGSETTFMCEYADETATIVEFLNRWITFSQSIISTLTGGGGSGGGGS[human IgG1 Fc with changes not listed]
heavy: QVQLVQSGAEVKKPGSSVKVSCKASGGTFSSYAISWVRQAPGQGLEWMGLIIPMFDTAGYAQKFQGRVAITVDESTSTAYMELSSLRSEDTAVYYCARAEHSSTGTFDYWGQGTLVTVSSASTKGPSVFPLAPSSKSTSGGTAALGCLVKDYFPEPVTVSWNSGALTSGVHTFPAVLQSSGLYSLSSVVTVPSSSLGTQTYICNVNHKPSNTKVDKKVEPKSCDKTHTCPPCPAPEAAGGPSVFLFPPKPKDTLMISRTPEVTCVVVDVSHEDPEVKFNWYVDGVEVHNAKTKPREEQYNSTYRVVSVLTVLHQDWLNGKEYKCKVSNKALPAPIEKTISKAKGQPREPQVCTLPPSRDELTKNQVSLSCAVKGFYPSDIAVEWESNGQPENNYKTTPPVLDSDGSFFLVSKLTVDKSRWQQGNVFSCSVMHEALHNHYTQKSLSLSPGK
light: DIQMTQSPSSVSASVGDRVTITCRASQGISSWLAWYQQKPGKAPKLLISAASSLQSGVPSRFSGSGSGTDFTLTISSLQPEDFATYYCQQANHLPFTFGGGTKVEIKRTVAAPSVFIFPPSDEQLKSGTASVVCLLNNFYPREAKVQWKVDNALQSGNSQESVTEQDSKDSTYSLSSTLTLSKADYEKHKVYACEVTHQGLSSPVTKSFNRGEC
B6: 2149 (αPD-1/IL-2m immunoconjugate; IL-2 with T3A + N88R + S130R and IL15 B′C′ loop region) (other)
chain: APASSSTKKTQLQLEHLLLDLQMILNGINNYKNPKLTRMLTFKFYMPKKATELKHLQCLEEELKPLEEVLNLAGDASIHDLISRINVIVLELKGSETTFMCEYADETATIVEFLNRWITFSQSIIRTLTGGGGSGGGGS[human IgG1 Fc with changes not listed]
heavy: QVQLVQSGAEVKKPGSSVKVSCKASGGTFSSYAISWVRQAPGQGLEWMGLIIPMFDTAGYAQKFQGRVAITVDESTSTAYMELSSLRSEDTAVYYCARAEHSSTGTFDYWGQGTLVTVSSASTKGPSVFPLAPSSKSTSGGTAALGCLVKDYFPEPVTVSWNSGALTSGVHTFPAVLQSSGLYSLSSVVTVPSSSLGTQTYICNVNHKPSNTKVDKKVEPKSCDKTHTCPPCPAPEAAGGPSVFLFPPKPKDTLMISRTPEVTCVVVDVSHEDPEVKFNWYVDGVEVHNAKTKPREEQYNSTYRVVSVLTVLHQDWLNGKEYKCKVSNKALPAPIEKTISKAKGQPREPQVCTLPPSRDELTKNQVSLSCAVKGFYPSDIAVEWESNGQPENNYKTTPPVLDSDGSFFLVSKLTVDKSRWQQGNVFSCSVMHEALHNHYTQKSLSLSPGK
light: DIQMTQSPSSVSASVGDRVTITCRASQGISSWLAWYQQKPGKAPKLLISAASSLQSGVPSRFSGSGSGTDFTLTISSLQPEDFATYYCQQANHLPFTFGGGTKVEIKRTVAAPSVFIFPPSDEQLKSGTASVVCLLNNFYPREAKVQWKVDNALQSGNSQESVTEQDSKDSTYSLSSTLTLSKADYEKHKVYACEVTHQGLSSPVTKSFNRGEC

The experiment addresses IL-2Rβγ complex (Fc heterodimer based on Knobs in holes: IL-2Rβ-Fc-Knob and IL-2Rγ-Fc-Hole) (human, biotin tag (avi tag)). Kind of experiment: SPR Biacore T200; biotinylated IL-2Rβγ captured on SA chip, molecule in the mobile phase. In general terms: SPR reads the build-up and loss of mass on a sensor chip optically.
For the molecule B1, binding was put at a Kd of 258 nM.
The figure for B2 is 100 nM; for B3 it is 551 nM; for B4 it is 466 nM.
For B5 the value was 42.5 nM.
Take B6: the equilibrium dissociation constant (Kd) was determined as 630 nM. This Kd lies about 15-fold higher than the previous one.

In general, Kd refers to the equilibrium constant for the complex coming apart.
